Laboratory results taken from ChEMBL document CHEMBL1157539, “Thousands of chemical starting points for antimalarial lead identification” (Nature, 2010).
In all, about 13,000 compounds were measured (“IFI”: median about 4, highest 2% from about 17 on). The list shows a part of the results.

Assay: GSK_TCMDC: Inhibition Frequency Index (IFI). The number of non-kinase HTS assays where a compound showed > 50 % inhibition, expressed as a percentage of the number of such assays in which the compound was tested (-0 is zero)
Assay type: functional
For O=C(Nc1ccc(-c2cccc(-c3nc4cc(F)ccc4[nH]3)c2)cc1)c1cnn2cccnc12, the IFI was 1.92%. O=C(Nc1ccc(C(=O)Oc2ccc3ccccc3c2)cc1)N[C@@H](Cc1ccc(O)cc1)C(=O)NC1CCN(Cc2ccc(O)cc2)C1 (some centres undefined) showed an IFI of 8.05%. With COc1ccc2nccc(N3CCC(O)(CCNCc4ccc5c(n4)NC(=O)CS5)CC3)c2n1 the IFI was 2.9%. N#CCc1ccc(Nc2nccc(Nc3ccc(Oc4ccccc4)cc3)n2)cc1 gave an IFI of 9.86%. c1ccn2c(Sc3ncnc4sccc34)ncc2c1 showed an IFI of 4.17%. Cc1ccc(OCCCCON2C(=N)N=C(N)NC2(C)C)cc1C gave an IFI of 3.57%. In the case of Cc1cc(NC(=O)Nc2ccc(C#N)cc2)c2ccccc2n1, the IFI was 6.77%. CC1(C)N=C(N)N=C(N)N1c1cc(Cl)c(Cl)cc1Cl gave an IFI of 0.85%. Compound O=C(N[C@@H](CC1CCCCC1)C(=O)NCCN1CCOCC1)c1ccc(O)c(-c2ccc(Cl)c(Cl)c2)c1 has an IFI of 1.48%. CCC(=C(CC)c1ccc(O)c(CNC2CCCCC2)c1)c1ccc(O)c(CNC2CCCCC2)c1 gave an IFI of 11.4%. Work on CN(C)C(=O)CN1CCN(c2ncnc(N3CCc4c([nH]c5ccccc45)[C@@H]3c3ccc4c(c3)CCO4)n2)CC1 yielded an IFI of 2.9%. For Cc1cc(C2NC(=O)c3ccccc3N2)c(C)n1-c1ccc2c(c1)OCO2 (centres undefined), the IFI was 3.7%. O=C(Nc1cccc(F)c1)N1CCC(NS(=O)(=O)c2ccc(Br)cc2)CC1 showed an IFI of 0.74%. For O=S(=O)(NCCN1CCCC1)c1cccc(-c2ccc(CNCc3ccsc3)cc2)c1, the IFI was 8.41%. OC(CNCc1ccccc1)c1cc(OCc2ccccc2)cc(OCc2ccccc2)c1 (centres undefined) gave an IFI of 4.51%. With COc1ccc(NC(=O)c2ccc(Br)c(C)c2)cc1N1CCN(CCCc2c[nH]c3ccccc23)CC1 the IFI was 3.08%. With O=C(Nc1ccc2c(c1)CCNCC2)Nc1ccc2ccccc2c1 the IFI was 3.45%. COc1ccc(NC(=O)[C@H](C)Nc2cc(C)nc(NCC3CCCCC3)n2)cc1 showed an IFI of 12.5%. CCc1ccc(OCc2ccccc2C(=O)Nc2ccc3nc(C)cc(N)c3c2)cc1 gave an IFI of 11.3%. In the case of Nn1c(=O)oc2ccc(Cl)cc2c1=O, the IFI was 2.92%. In the case of CCCCCCCN1CC[C@@H](CCCc2ccnc3ccc(OCCCCNC(N)=O)cc23)[C@@H](CC)C1, the IFI was 8.76%. For COc1ccc2nc3cc(Cl)ccc3c(NCCCO)c2c1, the IFI was 5.51%. Compound CCOC(=O)c1cn(CC)c2cc(OCc3ccccc3)ccc2c1=O has an IFI of 0.83%. With O=C(Nc1ccc(-c2ccc(-c3nc4ccccc4[nH]3)s2)cc1)Nc1ccsc1 the IFI was 2.02%. COc1ccc(NC(=O)Nc2ccc(C)c(-c3ccc(C(=O)Nc4ccncc4)cc3)c2)cc1 gave an IFI of 25.4%. In the case of COc1cc(-c2[nH]c(-c3ccc(OCCN(C)C)cc3)cc2-c2ccncc2)ccc1Cl, the IFI was 4.32%. Compound O=[N+]([O-])c1ccc(Nc2nc(NCc3ccccc3)nc(N/N=C/c3ccccc3[N+](=O)[O-])n2)cc1 has an IFI of 3.97%. CCCCCCCNCCNc1cc(C)nc2ccccc12 gave an IFI of 7.19%. Compound OCC1CCN(Cc2ccc(-c3cccc(-c4nc5cc(C(F)(F)F)ccc5[nH]4)c3)cc2)CC1 has an IFI of 0.99%. In the case of Cc1cc(N[C@@H](Cc2ccccc2)C(=O)NCc2cccc(F)c2)nc(NCC2CCCCC2)n1, the IFI was 27.9%. CN(Cc1c(Cl)cnn1C)S(=O)(=O)c1ccc2ccccc2c1 showed an IFI of 14.8%. Compound COc1ccc2nccc([C@@H](O)CN3CCC(NCCOc4c(C)cccc4F)CC3)c2c1 has an IFI of 2.24%. CC(CN(C)C)C(=O)Nc1ccc(-c2cccc(-c3nc4cc(C(F)(F)F)ccc4[nH]3)c2)cc1 (centres undefined) gave an IFI of 6.25%. With O=C(Cc1c[nH]cn1)Nc1cccc(-c2cccc(-c3nc4ccccc4[nH]3)c2)c1 the IFI was 3.67%. For Fc1ccccc1C=NNc1ccnc2cc(Cl)ccc12, the IFI was 1.48%. For CN1CCN(CCCSc2ccc3c(c2)ncn3-c2cc(OCc3ccccc3C(F)(F)F)c(C(N)=O)s2)CC1, the IFI was 10.8%. Cc1csc2nc(-c3ccccn3)nc(Nc3ccncn3)c12 gave an IFI of 9.87%. CCc1cc2c3c(N)nc(N)nc3ccc2n1CC gave an IFI of 3.52%. For COc1ccc(Nc2ccnc3cc(-c4ccccn4)ccc23)cc1OC, the IFI was 2.13%. COc1ccc(NC(=O)CCNc2cc(C)nc(NCCc3ccccc3)n2)cc1 gave an IFI of 2.27%. Work on Cc1ccc2c(=NN=Cc3ccc(N(C)C)cc3)cc(C)[nH]c2c1 yielded an IFI of 4.44%. In the case of Cc1cc(NC(=O)c2ccco2)ccc1OC1CCN(Cc2ccccc2)CC1, the IFI was 1.67%. With Cn1cncc1CCCN(Cc1ccc(-c2ccc(C(F)(F)F)cc2)cc1)C(=O)Cn1c(CCc2cccc(F)c2F)cc(=O)c2cccnc21 the IFI was 1.48%. For CCCCCN1CCCC(NS(=O)(=O)c2ccc(C(=O)Nc3ccc(C(F)(F)F)cc3)cc2)C1 (centres undefined), the IFI was 5.88%. With COC(=O)c1ccc2nc(-c3cc(OC)c(O)c(C(=O)NC4CCN(Cc5ccccc5)CC4)c3)[nH]c2c1 the IFI was 0.76%. Work on CC(C)(C)c1ccc(CNC(=O)/C=C/c2ccc(CNC3CCNCC3)cc2)cc1 yielded an IFI of 1.42%. Cc1c[nH]c2cc(/C=C/C(=O)NC3CCC(CCN4CCc5ccc(C#N)cc5CC4)CC3)ccc12 (centres undefined) gave an IFI of 2.99%. COc1ccc2ncc(F)c(CCN3C4CCC3CC(NCc3ccc5c(c3)OCCO5)C4)c2n1 (centres undefined) gave an IFI of 2.92%. In the case of CCCNCc1ccc(-c2ccc(CN(CCOC)C(=O)COc3ccccc3Cl)cc2)nc1, the IFI was 2.26%. Compound CC1CN(CC(O)Cn2c3ccc(Br)cc3c3cc(Br)ccc32)CC(C)O1 (centres undefined) has an IFI of 1.44%. N#Cc1ccc(N(CCOc2ccc(Cl)c(Cl)c2)Cc2ccccc2C(F)(F)F)cc1C(F)(F)F gave an IFI of 0%. CCCCNCC(O)COc1ccccc1-c1ccc(N/N=C/c2cccc3ccccc23)nn1 (centres undefined) showed an IFI of 6.82%. With CCN(CC)S(=O)(=O)c1cc(-c2ccc(=O)n(CC(=O)c3ccc(C)cc3)n2)ccc1C the IFI was 2.38%. Work on CN1CCC(NCc2cccc(-c3ccc(S(=O)(=O)NCc4ccccc4)c(F)c3)c2)CC1 yielded an IFI of 11.3%. Cc1ccc(F)cc1S(=O)(=O)NCC(C)c1ccc(NC(=O)Nc2cccc(F)c2)cc1 (centres undefined) showed an IFI of 6.4%. Work on COc1cc2nc(NCCn3nc(C)cc3C)nc(NCCc3ccccc3)c2cc1OC yielded an IFI of 4.26%. Compound CCN(CC)CCN(Cc1ccc(-c2ccc(C(F)(F)F)cc2)cc1)C(=O)Cn1cc(CCCCc2cccc(F)c2F)c(=O)c2ccccc21 has an IFI of 5.19%. Work on Cc1ccc(Nc2nc(C)cc(NC3CCN(C)CC3)n2)cc1 yielded an IFI of 2.9%. CS(=O)(=O)c1ccc(Nc2ncc(-c3ccc(S(C)(=O)=O)cc3)c(OCC(F)(F)F)n2)cc1 gave an IFI of 3.76%.
